Measurements reported in paper PMC5700166.
This is a selection; strong and weak results do not stand in their true shares. The list includes weakly bound sequences.

What follows are sequences tested against T1, GST-Co-NF-kB (UniProt F1ARL5) (assay: protein-binding microarray (PBM)). Details: PBM: ~300 nM protein, 6 mM HEPES pH 7.8, 80 mM KCl, 0.5 mM EDTA, 0.5 mM EGTA, 6% glycerol, 35 ng/ul poly-dIdC, 1% milk, 1 h, room temperature; high values mean tight binding; double strand, one strand shown.
T1 sequence: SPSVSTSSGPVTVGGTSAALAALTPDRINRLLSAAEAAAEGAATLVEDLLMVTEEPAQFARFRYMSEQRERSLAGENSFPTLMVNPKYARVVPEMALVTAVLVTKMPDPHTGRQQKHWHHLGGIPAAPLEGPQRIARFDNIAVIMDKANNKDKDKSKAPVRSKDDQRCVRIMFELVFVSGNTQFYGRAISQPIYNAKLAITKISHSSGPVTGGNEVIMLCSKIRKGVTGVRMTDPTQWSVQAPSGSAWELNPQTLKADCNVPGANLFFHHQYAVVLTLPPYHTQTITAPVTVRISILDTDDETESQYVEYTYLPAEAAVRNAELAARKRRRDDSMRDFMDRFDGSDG

Row | Sequence | binding signal [z-score]
1 | CCGATTAACATCAGGAAATGGGATGATGTTAATCGGGTCTTGATTCGCTTGACGCTGCTG | 0.814
2 | CCGATTAACATCATCGCGCGACATGATGTTAATCGGGTCTTGATTCGCTTGACGCTGCTG | -0.97
3 | CCGATTAACATCATCATCTCCATTGATGTTAATCGGGTCTTGATTCGCTTGACGCTGCTG | 0.267
4 | CCGATTAACATCAATCCTACAGGTGATGTTAATCGGGTCTTGATTCGCTTGACGCTGCTG | -0.247
5 | CCGATTAACATCAAAATTCGTCATGATGTTAATCGGGTCTTGATTCGCTTGACGCTGCTG | -0.178
6 | CCGATTAACATCACAGCGAATCCTGATGTTAATCGGGTCTTGATTCGCTTGACGCTGCTG | -0.704
7 | CCGATTAACATCAGGAAATTTGATGATGTTAATCGGGTCTTGATTCGCTTGACGCTGCTG | -0.108
8 | CCGATTAACATCAGCACCCTCCATGATGTTAATCGGGTCTTGATTCGCTTGACGCTGCTG | 0.765
9 | CCGATTAACATCATATTCGTAGCTGATGTTAATCGGGTCTTGATTCGCTTGACGCTGCTG | 0.413
10 | CCGATTAACATCAGTTGCTCTCATGATGTTAATCGGGTCTTGATTCGCTTGACGCTGCTG | -0.021
11 | CCGATTAACATCAAATGCAGTTTTGATGTTAATCGGGTCTTGATTCGCTTGACGCTGCTG | -1.27
12 | CCGATTAACATCACGCCGTCGGATGATGTTAATCGGGTCTTGATTCGCTTGACGCTGCTG | -0.985
13 | CCGATTAACATCACCATCTGACCTGATGTTAATCGGGTCTTGATTCGCTTGACGCTGCTG | 0.118
14 | CCGATTAACATCATGCCGGTATATGATGTTAATCGGGTCTTGATTCGCTTGACGCTGCTG | -0.882
15 | CCGATTAACATCATAAAAGTTCTTGATGTTAATCGGGTCTTGATTCGCTTGACGCTGCTG | -0.0929
16 | CCGATTAACATCATTGCCTGGTGTGATGTTAATCGGGTCTTGATTCGCTTGACGCTGCTG | 0.22
17 | CCGATTAACATCAGAAAATCCGCTGATGTTAATCGGGTCTTGATTCGCTTGACGCTGCTG | 0.411
18 | CCGATTAACATCAGACTATGCGGTGATGTTAATCGGGTCTTGATTCGCTTGACGCTGCTG | 0.332
19 | CCGATTAACATCAGCGAAATTCCTGATGTTAATCGGGTCTTGATTCGCTTGACGCTGCTG | -0.509
20 | CCGATTAACATCATAGGAATGATTGATGTTAATCGGGTCTTGATTCGCTTGACGCTGCTG | -0.00322

Row | Sequence | binding signal [z-score]
21 | CCGATTAACATCAGATTCTCATCTGATGTTAATCGGGTCTTGATTCGCTTGACGCTGCTG | -1.81
22 | CCGATTAACATCACGATAGGCCGTGATGTTAATCGGGTCTTGATTCGCTTGACGCTGCTG | -1.11
23 | CCGATTAACATCAATGGACCGTTTGATGTTAATCGGGTCTTGATTCGCTTGACGCTGCTG | -0.551
24 | CCGATTAACATCACAGAGTTTCCTGATGTTAATCGGGTCTTGATTCGCTTGACGCTGCTG | -0.121
25 | CCGATTAACATCACAGGAATTTCTGATGTTAATCGGGTCTTGATTCGCTTGACGCTGCTG | 0.442
26 | CCGATTAACATCAATCGCCTCTCTGATGTTAATCGGGTCTTGATTCGCTTGACGCTGCTG | -0.626
27 | CCGATTAACATCACCGTTCCGATTGATGTTAATCGGGTCTTGATTCGCTTGACGCTGCTG | -0.775
28 | CCGATTAACATCAGCTTCGAGTCTGATGTTAATCGGGTCTTGATTCGCTTGACGCTGCTG | -1.18
29 | CCGATTAACATCAGACGCTATAATGATGTTAATCGGGTCTTGATTCGCTTGACGCTGCTG | -0.38
30 | CCGATTAACATCATTACGCCACGTGATGTTAATCGGGTCTTGATTCGCTTGACGCTGCTG | 0.444
31 | CCGATTAACATCAGGTTCATACCTGATGTTAATCGGGTCTTGATTCGCTTGACGCTGCTG | -1.17
32 | CCGATTAACATCAAGTATGTGAATGATGTTAATCGGGTCTTGATTCGCTTGACGCTGCTG | 0.0751
33 | CCGATTAACATCAATGAATTCGATGATGTTAATCGGGTCTTGATTCGCTTGACGCTGCTG | -0.404
34 | CCGATTAACATCAGGCAGTTCCATGATGTTAATCGGGTCTTGATTCGCTTGACGCTGCTG | -0.00877
35 | CCGATTAACATCAGGCCCGTTTGTGATGTTAATCGGGTCTTGATTCGCTTGACGCTGCTG | 0.256
36 | CCGATTAACATCATTCGACATGTTGATGTTAATCGGGTCTTGATTCGCTTGACGCTGCTG | -0.438
37 | CCGATTAACATCACGGAAAAACCTGATGTTAATCGGGTCTTGATTCGCTTGACGCTGCTG | 0.299
38 | CCGATTAACATCATACCTATAGTTGATGTTAATCGGGTCTTGATTCGCTTGACGCTGCTG | 0.675
39 | CCGATTAACATCATAAGGACGTATGATGTTAATCGGGTCTTGATTCGCTTGACGCTGCTG | 0.474

The sequences below were run against T2, GST-Dm-Relish (UniProt Q94527) (assay: protein-binding microarray (PBM)). Details: PBM: ~300 nM protein, 6 mM HEPES pH 7.8, 80 mM KCl, 0.5 mM EDTA, 0.5 mM EGTA, 6% glycerol, 35 ng/ul poly-dIdC, 1% milk, 1 h, room temperature; Ap Aiptasia and Nv Nematostella (sea anemones) / Co Capsaspora / Aq Amphimedon (sponge) / Dm Drosophila / Hu human; RHD is the Rel homology domain; high values mean tight binding; most listed sequences are background and not binding sites; double strand, one strand shown.
T2 sequence: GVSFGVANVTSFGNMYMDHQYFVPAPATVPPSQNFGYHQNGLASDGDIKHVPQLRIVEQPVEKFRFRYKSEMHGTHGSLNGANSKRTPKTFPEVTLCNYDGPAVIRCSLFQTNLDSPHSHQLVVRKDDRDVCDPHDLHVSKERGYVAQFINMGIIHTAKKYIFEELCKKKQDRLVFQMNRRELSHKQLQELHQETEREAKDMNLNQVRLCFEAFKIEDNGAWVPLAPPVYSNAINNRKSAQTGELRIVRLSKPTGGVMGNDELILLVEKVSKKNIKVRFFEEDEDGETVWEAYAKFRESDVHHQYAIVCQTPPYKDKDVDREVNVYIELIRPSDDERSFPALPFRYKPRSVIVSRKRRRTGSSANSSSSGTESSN

Row | Sequence | binding signal [z-score]
40 | CCGATTAACATCAGGAAATGGGATGATGTTAATCGGGTCTTGATTCGCTTGACGCTGCTG | 0.295
41 | CCGATTAACATCATCGCGCGACATGATGTTAATCGGGTCTTGATTCGCTTGACGCTGCTG | -0.673
42 | CCGATTAACATCATCATCTCCATTGATGTTAATCGGGTCTTGATTCGCTTGACGCTGCTG | -0.945
43 | CCGATTAACATCAATCCTACAGGTGATGTTAATCGGGTCTTGATTCGCTTGACGCTGCTG | 0.288
44 | CCGATTAACATCAAAATTCGTCATGATGTTAATCGGGTCTTGATTCGCTTGACGCTGCTG | -0.41
45 | CCGATTAACATCACAGCGAATCCTGATGTTAATCGGGTCTTGATTCGCTTGACGCTGCTG | -0.0535
46 | CCGATTAACATCAGGAAATTTGATGATGTTAATCGGGTCTTGATTCGCTTGACGCTGCTG | 0.318
47 | CCGATTAACATCAGCACCCTCCATGATGTTAATCGGGTCTTGATTCGCTTGACGCTGCTG | 0.262
48 | CCGATTAACATCATATTCGTAGCTGATGTTAATCGGGTCTTGATTCGCTTGACGCTGCTG | -0.379
49 | CCGATTAACATCAGTTGCTCTCATGATGTTAATCGGGTCTTGATTCGCTTGACGCTGCTG | -0.766
50 | CCGATTAACATCAAATGCAGTTTTGATGTTAATCGGGTCTTGATTCGCTTGACGCTGCTG | -0.561
51 | CCGATTAACATCACGCCGTCGGATGATGTTAATCGGGTCTTGATTCGCTTGACGCTGCTG | -0.51
52 | CCGATTAACATCACCATCTGACCTGATGTTAATCGGGTCTTGATTCGCTTGACGCTGCTG | -0.431
53 | CCGATTAACATCATGCCGGTATATGATGTTAATCGGGTCTTGATTCGCTTGACGCTGCTG | -0.765
54 | CCGATTAACATCATAAAAGTTCTTGATGTTAATCGGGTCTTGATTCGCTTGACGCTGCTG | 0.299
55 | CCGATTAACATCATTGCCTGGTGTGATGTTAATCGGGTCTTGATTCGCTTGACGCTGCTG | 0.107
56 | CCGATTAACATCAGAAAATCCGCTGATGTTAATCGGGTCTTGATTCGCTTGACGCTGCTG | 0.495
57 | CCGATTAACATCAGACTATGCGGTGATGTTAATCGGGTCTTGATTCGCTTGACGCTGCTG | 0.253
58 | CCGATTAACATCAGCGAAATTCCTGATGTTAATCGGGTCTTGATTCGCTTGACGCTGCTG | 0.315
59 | CCGATTAACATCATAGGAATGATTGATGTTAATCGGGTCTTGATTCGCTTGACGCTGCTG | -0.0356

Row | Sequence | binding signal [z-score]
60 | CCGATTAACATCAGATTCTCATCTGATGTTAATCGGGTCTTGATTCGCTTGACGCTGCTG | -0.573
61 | CCGATTAACATCACGATAGGCCGTGATGTTAATCGGGTCTTGATTCGCTTGACGCTGCTG | 0.124
62 | CCGATTAACATCAATGGACCGTTTGATGTTAATCGGGTCTTGATTCGCTTGACGCTGCTG | -0.543
63 | CCGATTAACATCACAGAGTTTCCTGATGTTAATCGGGTCTTGATTCGCTTGACGCTGCTG | 0.0744
64 | CCGATTAACATCACAGGAATTTCTGATGTTAATCGGGTCTTGATTCGCTTGACGCTGCTG | 0.67
65 | CCGATTAACATCAATCGCCTCTCTGATGTTAATCGGGTCTTGATTCGCTTGACGCTGCTG | -0.737
66 | CCGATTAACATCACCGTTCCGATTGATGTTAATCGGGTCTTGATTCGCTTGACGCTGCTG | 0.635
67 | CCGATTAACATCAGCTTCGAGTCTGATGTTAATCGGGTCTTGATTCGCTTGACGCTGCTG | -1.28
68 | CCGATTAACATCAGACGCTATAATGATGTTAATCGGGTCTTGATTCGCTTGACGCTGCTG | -0.2
69 | CCGATTAACATCATTACGCCACGTGATGTTAATCGGGTCTTGATTCGCTTGACGCTGCTG | -0.42
70 | CCGATTAACATCAGGTTCATACCTGATGTTAATCGGGTCTTGATTCGCTTGACGCTGCTG | -0.197
71 | CCGATTAACATCAAGTATGTGAATGATGTTAATCGGGTCTTGATTCGCTTGACGCTGCTG | 0.594
72 | CCGATTAACATCAATGAATTCGATGATGTTAATCGGGTCTTGATTCGCTTGACGCTGCTG | -0.292
73 | CCGATTAACATCAGGCAGTTCCATGATGTTAATCGGGTCTTGATTCGCTTGACGCTGCTG | -0.576
74 | CCGATTAACATCAGGCCCGTTTGTGATGTTAATCGGGTCTTGATTCGCTTGACGCTGCTG | 0.724
75 | CCGATTAACATCATTCGACATGTTGATGTTAATCGGGTCTTGATTCGCTTGACGCTGCTG | -0.646
76 | CCGATTAACATCACGGAAAAACCTGATGTTAATCGGGTCTTGATTCGCTTGACGCTGCTG | 2.16
77 | CCGATTAACATCATACCTATAGTTGATGTTAATCGGGTCTTGATTCGCTTGACGCTGCTG | -0.093
78 | CCGATTAACATCATAAGGACGTATGATGTTAATCGGGTCTTGATTCGCTTGACGCTGCTG | -0.43
